Over roughly 110,000 compounds, “z-score” has its median near -0.1; the highest 2% begin near 2. The list shows a part of the results. The source made the active and inactive calls.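 Rule for the calls: active = z-score in the third read window above 3 or below -3; inactive = the rest.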
Target: Metabotropic glutamate receptor 8 (Rattus norvegicus) (UniProt P70579)
Test: rat mGluR8 modulators via GIRK flux, primary screen, cell-based, thallium flux, HTS (AID 488969)
Conditions: HEK293 rat mGluR8, GIRK (G protein-gated inwardly rectifying potassium channel) thallium flux, FluoZin2; at 10 µM; stronger effect = higher value; submaximal glutamate (EC20) added with thallium

Sequence of UniProt P70579 (P70579 whole entry, looked up): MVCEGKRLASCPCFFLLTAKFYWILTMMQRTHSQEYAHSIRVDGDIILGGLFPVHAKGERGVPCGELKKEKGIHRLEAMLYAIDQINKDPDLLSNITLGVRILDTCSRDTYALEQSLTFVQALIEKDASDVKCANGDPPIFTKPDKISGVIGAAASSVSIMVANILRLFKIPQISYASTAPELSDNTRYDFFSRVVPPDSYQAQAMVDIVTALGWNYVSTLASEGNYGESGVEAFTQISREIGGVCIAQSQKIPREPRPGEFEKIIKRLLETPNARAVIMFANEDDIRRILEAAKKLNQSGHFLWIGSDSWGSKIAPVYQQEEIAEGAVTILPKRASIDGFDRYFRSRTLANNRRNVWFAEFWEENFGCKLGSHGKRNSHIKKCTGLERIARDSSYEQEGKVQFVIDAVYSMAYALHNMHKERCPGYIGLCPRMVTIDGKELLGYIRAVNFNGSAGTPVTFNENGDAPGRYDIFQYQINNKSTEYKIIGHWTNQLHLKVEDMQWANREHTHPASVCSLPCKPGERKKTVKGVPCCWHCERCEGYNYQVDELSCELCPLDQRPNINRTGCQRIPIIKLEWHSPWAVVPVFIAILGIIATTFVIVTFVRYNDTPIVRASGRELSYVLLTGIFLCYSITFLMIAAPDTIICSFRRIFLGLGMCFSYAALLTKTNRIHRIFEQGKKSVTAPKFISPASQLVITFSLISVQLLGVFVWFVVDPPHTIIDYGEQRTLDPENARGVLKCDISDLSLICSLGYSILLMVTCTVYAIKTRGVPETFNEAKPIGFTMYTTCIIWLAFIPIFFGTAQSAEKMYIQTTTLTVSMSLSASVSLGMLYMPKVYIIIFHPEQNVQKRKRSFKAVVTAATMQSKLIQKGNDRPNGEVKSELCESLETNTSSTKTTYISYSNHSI

Structure (SMILES)	z-score
N#CCCCN1C(=O)C(O)(CC(=O)c2ccc3c(c2)OCCO3)c2ccccc21 (configuration not stated)	0.506
Cc1ccc(S(=O)(=O)N(C)CC(=O)O/N=C(\N)c2ccc([N+](=O)[O-])cc2)cc1	-0.621
CNS(=O)(=O)c1ccc(NCC2COc3ccccc3O2)c([N+](=O)[O-])c1 (configuration not stated)	-0.487
CCOC(=O)C1CCN(C(=O)Cc2c(F)cccc2Cl)CC1	-0.334
COc1cc2c(cc1OC)CN(C(=O)c1ccc(OC)c(S(=O)(=O)N3CCOCC3)c1)CC2	-0.539
CC(C)(C)C(=O)NNC(=O)CCCOc1ccc(Cl)cc1Cl	0.321
Cc1ccnc(NS(=O)(=O)c2cccs2)c1	-0.961
COc1ccc2c(OC)cc(=O)n(C)c2c1	0.0468
CCC(c1nnnn1CCOC)N(Cc1ccc(C)cc1)Cc1cc2cc(OC)ccc2[nH]c1=O (configuration not stated)	0.378
Cc1c(Cl)cccc1NC(=O)CCCCCN1C(=O)CCC1=O	0.184
COc1ccc(C(=O)/C=C/Nc2ccc([N+](=O)[O-])cc2C)c(OC)c1	-0.189
O=C(Nc1nc(-c2cccs2)cs1)c1cccc(S(=O)(=O)N2CCCCCC2)c1	-1.41
Cc1ccc(-n2c(C)c([N+](=O)[O-])c3ccc(O)c(CN(C)C)c32)cc1	0.912
CCOC(=O)C1CCCN(C(=O)C2CCN(S(=O)(=O)c3cccs3)CC2)C1 (configuration not stated)	0.124
Cc1ccc2nc3ccc(N4CCCC4)nn3c(=O)c2c1	-0.187
Cc1nn(-c2ccccc2)c(Cl)c1C(=O)OC(C)C(=O)NC(=O)NC1CCCCC1 (configuration not stated)	-0.188
O=C(NN1C(=O)c2cc(Br)ccc2NC1c1cc(Br)cc(Br)c1O)c1ccncc1 (configuration not stated)	-0.291
CCC(C)NC(=O)c1cc2cc3ccc(OC)cc3nc2s1 (configuration not stated)	-0.165
O=C1CCCC(=O)N1c1ccc(N2CCN(c3ccccc3)CC2)c([N+](=O)[O-])c1	0.041
COc1ccc(C2/C(=C(/O)c3ccccc3)C(=O)C(=O)N2C)cc1 (configuration not stated)	-0.0789
CCc1cccc(OCC(=O)Nc2ccc(S(=O)(=O)Nc3onc(C)c3C)cc2)c1	-0.0589
O=C(NNC(=O)[C@@H]1CCCC[C@@H]1C(=O)O)c1cccs1	0.534
Cc1cccc(-c2nc(=S)c3c(n2Cc2ccco2)CCCC3)c1	0.581

Structure (SMILES)	z-score
CC(C)(C#N)C(C)(C)c1nn[nH]n1	0.00414
c1ccc(Nc2ccc3c4c(cccc24)CC3)cc1	-0.0596
Cc1ccc2nc(SCC(=O)c3c(C)[nH]c4ccccc34)[nH]c2c1	-0.393
COc1ccc(-n2c(CCc3ccccc3)nnc2SCC(=O)NCc2ccccc2)cc1	-0.43
CCSc1cc(N2CCCC2)nc(-c2ccc(F)cc2)n1	0.0348
COc1cccc(C(=O)N2CCN=C2SCc2cccnc2)c1OC	0.652
CNc1ccc(/C=C2\COc3ccccc3C2=O)cc1[N+](=O)[O-]	0.708
COc1cccc(CN2CCN(CC(=O)Nc3ccccc3Cl)CC2)c1	-0.367
Cc1ccc(SC(C)C(=O)N2CCCC2)cc1 (configuration not stated)	0.69
Cc1ccnc(Sc2ccc([N+](=O)[O-])cc2[N+](=O)[O-])n1	-0.281
Cc1ccc(NN2C(=O)C=C(c3ccc(Cl)cc3)C2=O)cc1	-0.381
Cc1cc(=O)oc2cc(OC(C)C(=O)Nc3nccs3)ccc12 (configuration not stated)	-0.273
COc1ccc(S(=O)(=O)CCC(=O)NCCc2ccc(C)cc2)cc1	-0.152
C=CCn1c(CCNC(=O)c2cccs2)nnc1SCC(=O)Nc1cccc(C(C)=O)c1	-1.09
N=c1ccn(Cc2cccc(Cl)c2)cc1	1.07
O=C(Nc1ccncc1)c1c(F)cccc1F	0.441
CCOc1ccc2[nH]c(C)c(CN3CCCCC3)c(=O)c2c1	0.668
COCCOc1ccc(C(F)(F)F)cc1NC(=O)COC(=O)c1c(C)noc1C	-0.835
O=C1OCC(CO)(CO)N=C1NNc1ccccc1Cl	-0.0533
N#CC1=C(S)N(c2ccccc2)C(c2ccc(-c3cccc(Cl)c3)o2)NC1=O (configuration not stated)	-0.292
FC(F)Oc1cccc2cccnc12	0.447
COc1cccc(NC(=O)Cn2c(SCC(=O)N3CCOCC3)nc3ccccc32)c1	0.619
COc1ccc(-c2nnc3sc(C(C)N4C(=O)c5ccccc5C4=O)nn23)cc1 (configuration not stated)	-0.348

Structure (SMILES)	z-score
Cc1cc(C)cc(NC(=O)c2oc3ccccc3c2COc2ccccc2)c1	-0.32
O=C(CN1C(=O)c2cccc3cccc(c23)C1=O)N1CCCCC1	-0.0957
COc1ccc(Cl)cc1NC(=O)CSc1nc(N2CCCCC2)nc(N2CCCCC2)n1	0.133
CCOC(=O)N1CCC(NC(=O)c2csc3c2CCCC3)CC1	-0.438
Cc1ccc(NC(=O)CN2C(=O)N/C(=C/c3ccco3)C2=O)cc1	-0.182
O=C(Nc1cccc(C(F)(F)F)c1)c1cccnc1N1CCN(CCO)CC1	0.082
Cc1nn(Cc2ccc(Cl)cc2)c(C)c1NC(=O)Cn1nc([N+](=O)[O-])c(Cl)c1C	0.387
CN(C)CCOC(=O)C1(c2ccccc2)CCCC1	0.259
COC(=O)CCN(C(=O)c1ccc(OC(C)=O)cc1)c1ccccn1	-0.331
Cc1cccc(OCCNC(=O)c2cncc(Br)c2)c1	-0.527
COc1cccc(C(=O)Nc2cccc(C(=O)NC3=NN(c4c(Cl)cc(Cl)cc4Cl)C(=O)C3)c2)c1	-0.318
CCOc1ccc(NC(=O)N(CC(C)C)CC(C)C)cc1	-0.0312
Cc1cc(C)c2cc(CN(Cc3ccc4c(c3)OCO4)Cc3nnnn3Cc3ccco3)c(=O)[nH]c2c1	0.45
Cc1ccc(C2Nc3cccc4cccc(c34)N2)s1	-0.35
O=c1c2ccc(Cl)cc2[nH]c(=S)n1Cc1cccnc1	2.08
Cc1ccc(Cl)cc1N1CCN(C(=O)CSc2ccsc2[N+](=O)[O-])CC1	-0.239
Cc1occc1C(=O)NCCCc1ccccc1	-0.0626
Cc1cccc(Nc2nc(N3CCN(C)CC3)nc(N)c2[N+](=O)[O-])c1	-0.951
O=C(C1=C(O)C(=O)N(CCCN2CCOCC2)C1c1ccncc1)c1cc2ccccc2o1 (configuration not stated)	-0.0427
O=c1ccccn1CCOc1ccccc1Cl	-0.533
CCOC(=O)c1ccc(NC(=O)CC2OCCN(CC)C2=O)cc1 (configuration not stated)	0.162
Cn1c(=O)oc2cc(S(=O)(=O)N3CCCc4ccccc43)ccc21	-0.344
CS(=O)(=O)N1CCN(c2ccccc2NC(=O)c2ccc3ccccc3c2)CC1	-0.833

Structure (SMILES)	z-score
CCN(CC)S(=O)(=O)c1ccc(/C=C/C(=O)Nc2ccc(F)c(F)c2F)cc1	-0.0872
COc1cc(/C=N/Nc2ccc([N+](=O)[O-])cc2S(=O)(=O)N2CCOCC2)cc(OC)c1OC	-0.0588
CN1CCN(C2=CC(=O)OC23CCCCC3)CC1	0.371
c1ccc2c(Cn3nnc4ccccc43)cccc2c1	1.12
COc1ccc(Cc2nnc(NC(=O)c3ccc(Cl)c([N+](=O)[O-])c3)s2)cc1	-0.0406
CCOC(=O)C1=NN(c2ccc([N+](=O)[O-])cc2)CC1C(=O)OC (configuration not stated)	-0.173
CC(=O)Cc1nsc(NC(=O)c2ccco2)n1	-0.0674
COC(=O)CN(c1cccc(C(C)=O)c1)S(C)(=O)=O	0.274
CCOC(=O)c1sc(NC(=O)CSc2nc(C)cc(C)n2)c(C#N)c1C	-0.474
O=C(NCc1ccc2c(c1)OCO2)c1ccc(S(=O)(=O)NCC2CCCO2)cc1 (configuration not stated)	-0.139
Cn1c(SCCCC(=O)c2ccc(F)cc2)nnc1-c1ccncc1	-0.282
Cc1ccc(C(=O)N(CN2CCCC2=O)c2ccccc2)cc1C	-0.166
CCOc1ccccc1NC(=O)c1cc(S(=O)(=O)N2CCC3(CC2)OCCO3)ccc1F	-0.432
OCCSc1nncn1/N=C/c1c[nH]c2ccccc12	-0.376
Cc1ccc(S(=O)(=O)Nc2nonc2C)cc1	-0.752
O=C(COn1nnc2ccc(Cl)cc21)NC12CC3CC(CC(C3)C1)C2	0.819
COc1ccccc1NC(=O)CSc1nnc(-c2ccoc2C)n1CCc1ccccc1	-0.845
COC(=O)C(C(=O)OC)C(C)C(C(=O)OC)C(=O)OC	-0.0347
O=C(/C=C/c1cccc2ccccc12)c1ccncc1	-0.377
Cc1ccc(S(=O)(=O)/N=C(\c2ccccc2)N(C)S(=O)(=O)c2ccccc2)cc1	0.936
CN(C1=C(NC(=O)c2ccccc2)C(=O)c2ccccc2C1=O)C1CCS(=O)(=O)C1 (configuration not stated)	0.0726
CC(=O)Nc1cc(-c2nn3c(C)nnc3s2)ccc1C	0.478
Cn1cccc1CNC1CCCCC1	0.335

Structure (SMILES)	z-score
Cc1ccccc1OCC(=O)NNC(=O)Nc1ccc(Cl)cc1	-0.105
Cc1cccc(OCC(O)CN2C(C)(C)CC(O)CC2(C)C)c1 (configuration not stated)	active: 9.44
COC(=O)c1cc(OC)c(OCc2cc(C(=O)OC)oc2C)c(OC)c1	0.014
Cc1oncc1C(=S)Nc1ccccc1	active: 12.4
O=C1CNC(=O)/C1=C/c1ccc(O)cc1	0.0509
CCN=C1SC(CC(=O)NCC)C(=O)N1CC (configuration not stated)	-0.21
CCCCCCCc1c(C)nc(N2CCOCC2)[nH]c1=O	-0.697
CCOc1cc(S(=O)(=O)N(CC)CC)ccc1F	0.423
O=C(CN1CCC(Cc2ccccc2)CC1)Nc1ccc2c(c1)OCCO2	-0.425
Cc1onc(-c2c(F)cccc2Cl)c1C(=O)NCc1ccccn1	-0.465
C[C@H](N)c1nnc(SCc2ccc(Cl)cc2Cl)o1	0.0221
COc1cccc(-c2nc(CS(=O)CC(=O)NCc3ccccc3Cl)c(C)o2)c1 (configuration not stated)	0.0151
COc1cccc(NC(=S)N2CCc3cc(OC)c(OC)cc3C2COc2ccc3c(C)cc(=O)oc3c2)c1 (configuration not stated)	-0.0316
Cn1c(=O)c2c(SCc3cccnc3)nc(CC(C)(C)C)nc2n(C)c1=O	-0.231
COc1ccc(-c2cc(C(=O)NCCN3CCOCC3)c3ccccc3n2)cc1	0.368
CN(C)CCCN(C(=O)CCc1ccccc1)c1nc2ccc(F)cc2s1	0.318
CN1CCCc2cc(C=O)ccc21	-0.347
C=C1N(c2ccc(Cl)cc2)C(=O)OC1(C)C	0.433
Cn1nnc2cc(C(=O)N3CCCCCC3)ccc21	-0.0563
Cn1cc(C(=O)Nc2cccc(F)c2)cn1	0.0603

Source: PubChem BioAssay AID488969 (Vanderbilt High Throughput Screening Facility, 2010)
